Results taken from a collection of fitness landscapes (doi:10.1016/j.celrep.2020.107928).
In all, about 81,000 sequences were measured (“one-hybrid fitness for binding NBS DNA”: median about -0.1, highest 2% from about 0.36 on). The list shows a part of the results.

B1: Caulobacter ParB omega fusion; a variant is named by its letters at X, in order, B8GW30 (parent)
chain: MESVVVGEPGMSEGRRGLGRGLSALLGEVDAAPAQAPGEQLGGSREAPIEILQRNPDQPRRTFREEDLEDLSNSIREKGVLQPILVRPSPDTAGEYQIVAGERAWRAAQRAGLKTVPIMVRELDDLAVLEIGIIENVQRADLNVLEEALSYKVLMEKFERTQENIAQTIGKSXSHVANXMRLLXLPDEVQSYLVSGELTAXHARAIAAAADPVALAKQIIEGGLSVRETEALARKAPNLSAGKSKGGRPPRVKDTDTQALESDLSSVLGLDVSIDHRGSTGTLTITYATLEQLDDLCNRLTRGI

Variants of: B1
Experiment: one-hybrid fitness for binding NBS DNA (the Noc-binding site; scaled: cognate 1, non-cognate 0); higher = stronger binding
Details: with NBS DNA site
Method in brief: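 Bacterial one-hybrid selection in E. coli USO rpoZ- hisB- pyrF- with a HIS3 reporter carrying the site 19 bp from the promoter, screening Caulobacter ParB libraries with four specificity codons randomised (NNS). Cells grew 48 hours at 37°C on M9-minus-histidine plus 0.1 mM IPTG and 5 mM 3-AT. Plasmids before and after selection were Illumina-sequenced, three replicate libraries pooled, and variants under 10 reads dropped. Fitness is the log change in variant-to-wild-type read ratio, rescaled to cognate 1, non-cognate 0.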

| Variant | one-hybrid fitness for binding NBS DNA |
| --- | --- |
| VTMS | ≤ 0.2 |
| RMSV | ≤ 0.2 |
| QYWG | ≤ 0.2 |
| QWHC | ≤ 0.2 |
| NGSA | ≤ 0.2 |
| LFPP | ≤ 0.2 |
| GDDA | ≤ 0.2 |
| RAIT | 0.22 |
| DWPL | ≤ 0.2 |
| NGVF | ≤ 0.2 |
| IAFR | ≤ 0.2 |
| REGA | ≤ 0.2 |
| FLTL | ≤ 0.2 |
| VSSV | ≤ 0.2 |
| LRVW | ≤ 0.2 |
| SCML | ≤ 0.2 |
| STSR | ≤ 0.2 |
| QCGR | 0.764 |
| GDFV | ≤ 0.2 |
| ICKG | ≤ 0.2 |
| FDHG | ≤ 0.2 |
| CING | ≤ 0.2 |
| RINI | ≤ 0.2 |
| MEYN | ≤ 0.2 |
| DAGG | ≤ 0.2 |
| RISN | ≤ 0.2 |

| Variant | one-hybrid fitness for binding NBS DNA |
| --- | --- |
| GIPI | ≤ 0.2 |
| GYGT | ≤ 0.2 |
| ITRM | ≤ 0.2 |
| AFLR | ≤ 0.2 |
| RHEQ | ≤ 0.2 |
| STSP | ≤ 0.2 |
| RAHK | ≤ 0.2 |
| PRMS | ≤ 0.2 |
| AIQV | ≤ 0.2 |
| HLPW | ≤ 0.2 |
| EILT | ≤ 0.2 |
| HNDY | ≤ 0.2 |
| DTRM | ≤ 0.2 |
| LTEF | ≤ 0.2 |
| SNPD | ≤ 0.2 |
| RYRC | 0.357 |
| LKHP | ≤ 0.2 |
| MSMP | ≤ 0.2 |
| ENYV | ≤ 0.2 |
| PSSR | ≤ 0.2 |
| QCHN | 0.22 |
| FLPD | ≤ 0.2 |
| QTNC | 0.329 |
| SNFG | ≤ 0.2 |
| TRAS | ≤ 0.2 |
| TAWP | ≤ 0.2 |

| Variant | one-hybrid fitness for binding NBS DNA |
| --- | --- |
| RCPM | ≤ 0.2 |
| VKDD | ≤ 0.2 |
| SYFG | ≤ 0.2 |
| FRRG | ≤ 0.2 |
| LWHW | ≤ 0.2 |
| SIRC | ≤ 0.2 |
| YVPG | ≤ 0.2 |
| IDSR | ≤ 0.2 |
| TWWS | ≤ 0.2 |
| EAYV | ≤ 0.2 |
| KMWG | ≤ 0.2 |
| RNSQ | ≤ 0.2 |
| SIED | ≤ 0.2 |
| IVTS | ≤ 0.2 |
| TQPD | ≤ 0.2 |
| KLTF | ≤ 0.2 |
| HRFR | ≤ 0.2 |
| RGFE | ≤ 0.2 |
| HINC | ≤ 0.2 |
| WLFS | ≤ 0.2 |
| CELG | ≤ 0.2 |
| LYSD | ≤ 0.2 |
| DRHI | ≤ 0.2 |
| MPTN | ≤ 0.2 |
| AAIS | ≤ 0.2 |
| RQWI | ≤ 0.2 |

| Variant | one-hybrid fitness for binding NBS DNA |
| --- | --- |
| TQRH | ≤ 0.2 |
| IIWR | ≤ 0.2 |
| AAKA | ≤ 0.2 |
| DGWT | ≤ 0.2 |
| YGRS | ≤ 0.2 |
| SNRP | ≤ 0.2 |
| KRTI | ≤ 0.2 |
| YALW | ≤ 0.2 |
| NNPR | ≤ 0.2 |
| WATC | ≤ 0.2 |
| PVRY | ≤ 0.2 |
| IHNG | ≤ 0.2 |
| QIHN | ≤ 0.2 |
| AACR | ≤ 0.2 |
| EYHT | ≤ 0.2 |
| CHSP | ≤ 0.2 |
| VALD | ≤ 0.2 |
| QKFS | 0.277 |
| RTCQ | ≤ 0.2 |
| SPHS | ≤ 0.2 |
| TAAR | ≤ 0.2 |
| KYNA | ≤ 0.2 |
| RDVT | ≤ 0.2 |
| PRKW | 0.446 |
| NNAC | ≤ 0.2 |
| ECVS | ≤ 0.2 |

| Variant | one-hybrid fitness for binding NBS DNA |
| --- | --- |
| AHWP | ≤ 0.2 |
| MSMR | ≤ 0.2 |
| FAAD | ≤ 0.2 |
| QLDI | ≤ 0.2 |
| NDHA | ≤ 0.2 |
| GLVI | ≤ 0.2 |
| FIKG | ≤ 0.2 |
| YSSA | ≤ 0.2 |
| LCAC | ≤ 0.2 |
| CNPT | ≤ 0.2 |
| RSIW | ≤ 0.2 |
| IHIM | ≤ 0.2 |
| SDGS | ≤ 0.2 |
| AEDA | ≤ 0.2 |
| KTVS | ≤ 0.2 |
| IFSI | ≤ 0.2 |
| SSPT | ≤ 0.2 |
| ELMF | ≤ 0.2 |
| NDLM | ≤ 0.2 |
| ISQS | ≤ 0.2 |
| SPGR | ≤ 0.2 |
| TTDF | ≤ 0.2 |
| RSAY | ≤ 0.2 |
| AHTE | ≤ 0.2 |
| TDDS | ≤ 0.2 |
| YIFG | ≤ 0.2 |

| Variant | one-hybrid fitness for binding NBS DNA |
| --- | --- |
| GHML | ≤ 0.2 |
| EGCL | ≤ 0.2 |
| HTSC | ≤ 0.2 |
| IYPK | ≤ 0.2 |
| LYEG | ≤ 0.2 |
| IDVS | ≤ 0.2 |
| NWNC | ≤ 0.2 |
| MTTG | ≤ 0.2 |
| KTTL | ≤ 0.2 |
| SYQG | ≤ 0.2 |
| MLPS | ≤ 0.2 |
| SYDF | ≤ 0.2 |
| KLYE | ≤ 0.2 |
| QSRT | 0.723 |
| TALK | ≤ 0.2 |
| TTSL | ≤ 0.2 |
| SFKI | ≤ 0.2 |
| RNCR | ≤ 0.2 |
| RMTK | ≤ 0.2 |
| TTGS | ≤ 0.2 |
| KVKS | ≤ 0.2 |
| IKYL | ≤ 0.2 |
| QIVT | 0.236 |
